Experimental data published in paper PMC10439310 (Nature microbiology, 2022).

Tests used:
BsIMPDH-R141A/R144A [1] = details: presence of IMP and NAD+
BsIMPDH-K202A [2] = details: 10 μM Ap4A
BsIMPDH-R141A/R144A [3] = details: 10 μM Ap4A
BsIMPDH-K202A [4] = details: presence of IMP and NAD+

Nc1ncnc2c1ncn2[C@@H]1O[C@H](COP(=O)(O)OP(=O)(O)OP(=O)(O)OP(=O)(O)OC[C@H]2O[C@@H](n3cnc4c(N)ncnc43)[C@H](O)[C@@H]2O)[C@@H](O)[C@H]1O [Ap4A, diadenosine 5’,5’’’-P1,P4-tetraphosphate]
Ap4A-dependent tetramer-to-octamer equilibrium (in words) (BsIMPDH-R141A/R144A [1]): insensitive to Ap4A-dependent regulation
Ap4A-dependent change of enzymatic activity (in words) (BsIMPDH-K202A [2]): modest Ap4A-dependent reduction in activity
Ap4A-dependent regulation of enzymatic activity (in words) (BsIMPDH-R141A/R144A [3]): insensitive to Ap4A-dependent regulation
Ap4A-dependent octamerization (in words) (BsIMPDH-K202A [4]): still able to octamerize in dependence on Ap4A albeit higher concentrations were required
